Measurements from the supplement of paper PMC8728848.
The other results are listed elsewhere or left out.

Tests used:
Assay in all cases: glycan array binding signal (z-score within array); higher = stronger binding
Conditions in all cases: glycan notation: IUPAC condensed, linker removed
[1] = biological target: GlcNAc(b1-3)Gal(b1-4)GlcNAc
Procedure, shortened: (§1)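 The Consortium for Functional Glycomics database supplied 3228 glycan arrays, of which those lacking an available protein sequence were dropped. The binding signal, a within-array Z-score, was averaged across arrays of the same protein sequence and across linkers. Negative scores can be read as non-binding.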

[2] = biological target: GlcNAc(b1-3)Gal(b1-4)GlcNAc(b1-2)Man(a1-3)[GlcNAc(b1-3)Gal(b1-4)GlcNAc(b1-2)Man(a1-6)]Man(b1-4)GlcNAc(b1-4)GlcNAc
Procedure, shortened: as §1

[3] = biological target: GlcNAc(b1-3)Gal(b1-4)GlcNAc(b1-2)Man(a1-3)[GlcNAc(b1-3)Gal(b1-4)GlcNAc(b1-2)Man(a1-6)]Man(b1-4)GlcNAc(b1-4)[Fuc(a1-6)]GlcNAc
Procedure, shortened: as §1

[4] = biological target: GlcNAc(b1-3)Gal(b1-4)GlcNAc(b1-2)[GlcNAc(b1-3)Gal(b1-4)GlcNAc(b1-6)]Man(a1-6)[GlcNAc(b1-3)Gal(b1-4)GlcNAc(b1-2)Man(a1-3)]Man(b1-4)GlcNAc(b1-4)GlcNAc
Procedure, shortened: as §1

[5] = biological target: GlcNAc(b1-3)Gal(b1-4)GlcNAc(b1-3)Gal(b1-4)GlcNAc
Procedure, shortened: as §1

[6] = biological target: GlcNAc(b1-3)Gal(b1-4)GlcNAc(b1-3)Gal(b1-4)GlcNAc(b1-2)Man(a1-3)[GlcNAc(b1-3)Gal(b1-4)GlcNAc(b1-3)Gal(b1-4)GlcNAc(b1-2)Man(a1-6)]Man(b1-4)GlcNAc(b1-4)GlcNAc
Procedure, shortened: as §1

[7] = biological target: GlcNAc(b1-3)Gal(b1-4)GlcNAc(b1-3)Gal(b1-4)GlcNAc(b1-2)Man(a1-3)[GlcNAc(b1-3)Gal(b1-4)GlcNAc(b1-3)Gal(b1-4)GlcNAc(b1-2)Man(a1-6)]Man(b1-4)GlcNAc(b1-4)[Fuc(a1-6)]GlcNAc
Procedure, shortened: as §1

[8] = biological target: GlcNAc(b1-3)Gal(b1-4)GlcNAc(b1-3)Gal(b1-4)GlcNAc(b1-2)[GlcNAc(b1-3)Gal(b1-4)GlcNAc(b1-3)Gal(b1-4)GlcNAc(b1-6)]Man(a1-6)[GlcNAc(b1-3)Gal(b1-4)GlcNAc(b1-3)Gal(b1-4)GlcNAc(b1-2)Man(a1-3)]Man(b1-4)GlcNAc(b1-4)[Fuc(a1-6)]GlcNAc
Procedure, shortened: as §1

[9] = biological target: GlcNAc(b1-3)Gal(b1-4)GlcNAc(b1-3)Gal(b1-4)GlcNAc(b1-3)Gal(b1-4)GlcNAc(b1-2)Man(a1-3)[GlcNAc(b1-3)Gal(b1-4)GlcNAc(b1-3)Gal(b1-4)GlcNAc(b1-3)Gal(b1-4)GlcNAc(b1-2)Man(a1-6)]Man(b1-4)GlcNAc(b1-4)GlcNAc
Procedure, shortened: as §1

[10] = biological target: GlcNAc(b1-3)Gal(b1-4)GlcNAc(b1-3)Gal(b1-4)GlcNAc(b1-3)Gal(b1-4)GlcNAc(b1-2)Man(a1-3)[GlcNAc(b1-3)Gal(b1-4)GlcNAc(b1-3)Gal(b1-4)GlcNAc(b1-3)Gal(b1-4)GlcNAc(b1-2)Man(a1-6)]Man(b1-4)GlcNAc(b1-4)[Fuc(a1-6)]GlcNAc
Procedure, shortened: as §1

[11] = biological target: GlcNAc(b1-3)Gal(b1-4)GlcNAc(b1-3)Gal(b1-4)GlcNAc(b1-3)Gal(b1-4)GlcNAc(b1-2)[GlcNAc(b1-3)Gal(b1-4)GlcNAc(b1-3)Gal(b1-4)GlcNAc(b1-3)Gal(b1-4)GlcNAc(b1-6)]Man(a1-6)[GlcNAc(b1-3)Gal(b1-4)GlcNAc(b1-3)Gal(b1-4)GlcNAc(b1-3)Gal(b1-4)GlcNAc(b1-2)Man(a1-3)]Man(b1-4)GlcNAc(b1-4)[Fuc(a1-6)]GlcNAc
Procedure, shortened: as §1

[12] = biological target: GlcNAc(b1-3)Gal(b1-4)GlcNAc(b1-3)Gal(b1-4)GlcNAc(b1-3)Gal(b1-4)GlcNAc(b1-3)Gal(b1-4)GlcNAc(b1-2)Man(a1-3)[GlcNAc(b1-3)Gal(b1-4)GlcNAc(b1-3)Gal(b1-4)GlcNAc(b1-3)Gal(b1-4)GlcNAc(b1-3)Gal(b1-4)GlcNAc(b1-2)Man(a1-6)]Man(b1-4)GlcNAc(b1-4)GlcNAc
Procedure, shortened: as §1

[13] = biological target: GlcNAc(b1-3)Gal(b1-4)GlcNAc(b1-3)Gal(b1-4)GlcNAc(b1-3)Gal(b1-4)GlcNAc(b1-3)Gal(b1-4)GlcNAc(b1-2)Man(a1-3)[GlcNAc(b1-3)Gal(b1-4)GlcNAc(b1-3)Gal(b1-4)GlcNAc(b1-3)Gal(b1-4)GlcNAc(b1-3)Gal(b1-4)GlcNAc(b1-2)Man(a1-6)]Man(b1-4)GlcNAc(b1-4)[Fuc(a1-6)]GlcNAc
Procedure, shortened: as §1

[14] = biological target: GlcNAc(b1-3)Gal(b1-4)GlcNAc(b1-3)Gal(b1-4)GlcNAc(b1-3)Gal(b1-4)GlcNAc(b1-3)Gal(b1-4)GlcNAc(b1-2)[GlcNAc(b1-3)Gal(b1-4)GlcNAc(b1-3)Gal(b1-4)GlcNAc(b1-3)Gal(b1-4)GlcNAc(b1-3)Gal(b1-4)GlcNAc(b1-6)]Man(a1-6)[GlcNAc(b1-3)Gal(b1-4)GlcNAc(b1-3)Gal(b1-4)GlcNAc(b1-3)Gal(b1-4)GlcNAc(b1-3)Gal(b1-4)GlcNAc(b1-2)Man(a1-3)]Man(b1-4)GlcNAc(b1-4)[Fuc(a1-6)]GlcNAc
Procedure, shortened: as §1

[15] = biological target: GlcNAc(b1-3)Gal(b1-4)GlcNAc(b1-3)Gal(b1-4)GlcNAc(b1-3)GalNAc
Procedure, shortened: as §1

[16] = biological target: GlcNAc(b1-3)Gal(b1-4)GlcNAc(b1-3)GalNAc
Procedure, shortened: as §1

[17] = biological target: GlcNAc(b1-3)Gal(b1-4)GlcNAc(b1-3)[GlcNAc(b1-3)Gal(b1-4)GlcNAc(b1-3)]GalNAc
Procedure, shortened: as §1

[18] = biological target: GlcNAc(b1-3)Gal(b1-4)GlcNAc(b1-6)[Gal(b1-3)]GalNAc
Procedure, shortened: as §1

[19] = biological target: GlcNAc(b1-3)Gal(b1-4)GlcNAc(b1-6)[GlcNAc(b1-3)Gal(b1-3)]GalNAc
Procedure, shortened: as §1

[20] = biological target: GlcNAc(b1-3)Gal(b1-4)GlcNAc(b1-6)[GlcNAc(b1-3)]Gal(b1-4)GlcNAc
Procedure, shortened: as §1

GlcNAc(b1-3)GalNAc = biological target: GlcNAc(b1-3)GalNAc
Procedure, shortened: as §1

GlcNAc(b1-3)Man = biological target: GlcNAc(b1-3)Man
Procedure, shortened: as §1

[21] = biological target: GlcNAc(b1-3)[GlcNAc(b1-4)][GlcNAc(b1-6)]GlcNAc
Procedure, shortened: as §1

[22] = biological target: GlcNAc(b1-3)[GlcNAc(b1-6)]Gal(b1-4)GlcNAc
Procedure, shortened: as §1

[23] = biological target: GlcNAc(b1-3)[GlcNAc(b1-6)]GalNAc
Procedure, shortened: as §1

[24] = biological target: GlcNAc(b1-4)Gal(b1-4)GlcNAc
Procedure, shortened: as §1

GlcNAc(b1-4)GlcNAc = biological target: GlcNAc(b1-4)GlcNAc
Procedure, shortened: as §1

[25] = biological target: GlcNAc(b1-4)GlcNAc(b1-4)GlcNAc
Procedure, shortened: as §1

[26] = biological target: GlcNAc(b1-4)GlcNAc(b1-4)GlcNAc(b1-4)GlcNAc(b1-4)GlcNAc
Procedure, shortened: as §1

[27] = biological target: GlcNAc(b1-4)GlcNAc(b1-4)GlcNAc(b1-4)GlcNAc(b1-4)GlcNAc(b1-4)GlcNAc
Procedure, shortened: as §1

[28] = biological target: GlcNAc(b1-4)[GlcNAc(b1-6)]GalNAc
Procedure, shortened: as §1

[29] = biological target: GlcNAc(b1-6)Gal(b1-4)GlcNAc
Procedure, shortened: as §1

GlcNAc(b1-6)GalNAc = biological target: GlcNAc(b1-6)GalNAc
Procedure, shortened: as §1

[30] = biological target: GlcNAc6S(b1-3)Gal(b1-4)GlcNAc
Procedure, shortened: as §1

Kdn(a2-3)Gal(b1-3)GalNAc = biological target: Kdn(a2-3)Gal(b1-3)GalNAc
Procedure, shortened: as §1

Kdn(a2-3)Gal(b1-3)GlcNAc = biological target: Kdn(a2-3)Gal(b1-3)GlcNAc
Procedure, shortened: as §1

Kdn(a2-3)Gal(b1-4)Glc = biological target: Kdn(a2-3)Gal(b1-4)Glc
Procedure, shortened: as §1

Kdn(a2-3)Gal(b1-4)GlcNAc = biological target: Kdn(a2-3)Gal(b1-4)GlcNAc
Procedure, shortened: as §1

[31] = biological target: Kdn(a2-3)Gal(b1-4)[Fuc(a1-3)]GlcNAc
Procedure, shortened: as §1

Kdn(a2-6)Gal(b1-4)GlcNAc = biological target: Kdn(a2-6)Gal(b1-4)GlcNAc
Procedure, shortened: as §1

[32] = biological target: Man(a1-2)Man(a1-2)Man(a1-3)Man
Procedure, shortened: as §1

[33] = biological target: Man(a1-2)Man(a1-2)Man(a1-6)[Man(a1-3)]Man
Procedure, shortened: as §1

Man(a1-2)Man(a1-3)Man = biological target: Man(a1-2)Man(a1-3)Man
Procedure, shortened: as §1

[34] = biological target: Man(a1-2)Man(a1-3)[Man(a1-2)Man(a1-6)]Man
Procedure, shortened: as §1

[35] = biological target: Man(a1-2)Man(a1-3)[Man(a1-2)Man(a1-6)]Man(a1-6)[Man(a1-2)Man(a1-2)Man(a1-3)]Man
Procedure, shortened: as §1

B1: Clrb (Mus musculus) (protein)
chain: ITGATKTEQIPVNKTYAACPQNWIGVENKCFYFSEYPSNWTFAQAFCMAQEAQLARFDNQDELNFLMRYKANFDSWIGLHRESSEHPWKWTDNTEYNNTIPIRGEERFAYLNNNGISSTRIYSLRMWICSKLNSYSLHCQTPFFPSGTKHHHHHHHHG
- glycan array binding signal (z-score) [1]: 2.31
- glycan array binding signal (z-score) [2]: 0.301
- glycan array binding signal (z-score) [3]: 0.94
- glycan array binding signal (z-score) [4]: 0.54
- glycan array binding signal (z-score) [5]: 1.74
- glycan array binding signal (z-score) [6]: 1.33
- glycan array binding signal (z-score) [7]: 1.51
- glycan array binding signal (z-score) [8]: 0.215
- glycan array binding signal (z-score) [9]: -0.112
- glycan array binding signal (z-score) [10]: 1.01
- glycan array binding signal (z-score) [11]: 0.444
- glycan array binding signal (z-score) [12]: 0.135
- glycan array binding signal (z-score) [13]: 0.21
- glycan array binding signal (z-score) [14]: -0.147
- glycan array binding signal (z-score) [15]: -0.444
- glycan array binding signal (z-score) [16]: -0.422
- glycan array binding signal (z-score) [17]: -0.436
- glycan array binding signal (z-score) [18]: -0.36
- glycan array binding signal (z-score) [19]: -0.152
- glycan array binding signal (z-score) [20]: 0.795
- glycan array binding signal (z-score) (GlcNAc(b1-3)GalNAc): -0.389
- glycan array binding signal (z-score) (GlcNAc(b1-3)Man): -0.377
- glycan array binding signal (z-score) [21]: -0.339
- glycan array binding signal (z-score) [22]: 0.188
- glycan array binding signal (z-score) [23]: 0.459
- glycan array binding signal (z-score) [24]: -0.413
- glycan array binding signal (z-score) (GlcNAc(b1-4)GlcNAc): 3.54
- glycan array binding signal (z-score) [25]: 3.47
- glycan array binding signal (z-score) [26]: 3.75
- glycan array binding signal (z-score) [27]: 7.67
- glycan array binding signal (z-score) [28]: 3.69
- glycan array binding signal (z-score) [29]: 1.87
- glycan array binding signal (z-score) (GlcNAc(b1-6)GalNAc): 1.63
- glycan array binding signal (z-score) [30]: 0.083
- glycan array binding signal (z-score) (Kdn(a2-3)Gal(b1-3)GalNAc): -0.342
- glycan array binding signal (z-score) (Kdn(a2-3)Gal(b1-3)GlcNAc): -0.157
- glycan array binding signal (z-score) (Kdn(a2-3)Gal(b1-4)Glc): -0.357
- glycan array binding signal (z-score) (Kdn(a2-3)Gal(b1-4)GlcNAc): -0.287
- glycan array binding signal (z-score) [31]: -0.378
- glycan array binding signal (z-score) (Kdn(a2-6)Gal(b1-4)GlcNAc): -0.348
- glycan array binding signal (z-score) [32]: -0.273
- glycan array binding signal (z-score) [33]: -0.42
- glycan array binding signal (z-score) (Man(a1-2)Man(a1-3)Man): -0.386
- glycan array binding signal (z-score) [34]: -0.336
- glycan array binding signal (z-score) [35]: -0.221
